Results taken from PubChem BioAssay (NCI).
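Dose response: 5 concentrations. Exposure: 48 h. Format: 96-well plates. Endpoint: linear interpolation; highest concentration if not reached. The concentration for 50% growth inhibition is given as GI50. At the TGI there is no net growth.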

Each molecule was assayed on NCI-H322M lung (assay: NCI tumour cell line growth inhibition, 48 h).
For `O=Cc1cn(C(=O)c2ccccc2)c2ccccc12`, the TGI was over 100 µM. `C[C@@H](C(=O)Nc1ccc(Cl)cc1)C1CCC(c2ccnc3ccc(F)cc23)CC1` (stereo partly drawn) was tested, and the GI50 was 34.9 µM and the TGI was over 100 µM. For `COC(=O)/C=C/C=C(c1ccccc1)c1ccccc1`, the GI50 was 5.85 µM and the TGI was over 100 µM. Work on `O=C(NC(Cc1c[nH]c2ccccc12)C(=O)O)/C(=C/c1ccccc1O)NC(=O)c1ccccc1` (stereo not drawn) yielded a TGI of over 100 µM. Molecule `CC(C)(C)C1=Cc2cc3cc(C(C)(C)C)[nH]c(=O)c3cc2S(=O)(=O)N1` has a TGI of over 100 µM. For `COCCN1C2=CCCCC2=Nc2c1nc(N)[nH]c2=O`, the TGI was over 100 µM. For `O=C(Cn1ccc(=O)[nH]c1=O)Nc1ccc(C(=O)O)c(O)c1`, the TGI was over 100 µM. `CCOC(=O)C1=C(C)N(Cc2ccccc2)C(C)=C(C(=O)OCC)C1c1ccccc1O` was tested, and the TGI was over 100 µM. Molecule `O=c1c2ncn(C3CC(O)C(CO)O3)c2nnn1Cc1ccccc1[N+](=O)[O-]` (stereo not drawn) has a TGI of over 100 µM. `COc1ccc(-c2ccc(/C=N/n3c(COc4ccc(Cl)cc4Cl)n[nH]c3=S)o2)c([N+](=O)[O-])c1` showed a GI50 of 18 µM and a TGI of 41.7 µM. `COC(=O)[C@H](Cc1cn(C)cn1)NC(=O)[C@H](Cc1c[nH]c2ccccc12)NC(=O)Nc1cc(C(F)(F)F)cc(C(F)(F)F)c1` gave a GI50 of over 10 µM and a TGI of over 10 µM. Work on `COc1c(CCC[P+](c2ccccc2)(c2ccccc2)c2ccccc2)cc2c(c1OC)OCO2` yielded a GI50 of 3.17 µM and a TGI of 31.5 µM. Molecule `O=CNc1c(Cl)cc2c(c1Cl)Cc1cc([N+](=O)[O-])ccc1-2` has a GI50 of 4.72 µM and a TGI of 37.6 µM. `CN1CCN(CCc2cccc(C(=O)c3cnn(-c4ccc(F)cc4)c3N)c2)CC1` gave a GI50 of over 25 µM and a TGI of over 25 µM. Molecule `Cc1sc(C(=O)Nc2cc(C(=O)NCCCN(C)C)n(C)c2)cc1NC(=O)CCCN1C(=O)c2cccc3cccc(c23)C1=O` has a GI50 of over 100 µM and a TGI of over 100 µM. With `COc1cc2c(cc1OC)C1c3ccccc3CCN1CC2` (stereo not drawn) the TGI was over 100 µM. `CN(C)/C=C/c1nnc([N+](=O)[O-])s1` was tested, and the TGI was 57.8 µM. In the case of `CCCCOc1ccc(NC(N)=Nc2ccc(Cl)cc2)cc1`, the TGI was 16.9 µM. For `CC(C)=C[C@@H]1C[C@H](n2cc(C)c(=O)[nH]c2=O)ON1CCO`, the TGI was over 100 µM. Molecule `Cc1ccncc1.[O]=[Ge].[O]=[Ge].[O]=[Ge].[O]=[Ge].[O]=[Ge].[O]=[Ge][OH].[O]=[Ge][OH]` has a GI50 of over 100 µM and a TGI of over 100 µM. `Nc1ccn(Cc2ccc(C34CC5CC(CC(C5)C3)C4)c(O)c2)c(=O)n1` gave a GI50 of over 100 µM and a TGI of over 100 µM. In the case of `CNS(=O)(=O)NN(C)S(=O)(=O)c1ccc(F)cc1`, the TGI was over 100 µM. `CCCCOC(C)(C)/C=C/C(O)[C@](C)(O)[C@H]1[C@H](O)C[C@@]2(C)[C@@H]3CCc4c(cc(OC5OC(CO)C(O)C(O)C5O)c(O)c4C)C3(C)C(=O)C[C@]12C` (stereo partly drawn) showed a TGI of over 100 µM. `COC(=O)CCC1CCc2c(OC)ccc(O)c2C1=O` (stereo not drawn) was tested, and the TGI was over 100 µM. Molecule `COc1cc2c(cc1OCCCCOc1cc(-c3ccc(F)cc3)nc(C)n1)N=C[C@@H]1CCCN1C2=O` has a TGI of 3.27 µM. `COc1ccc(Nc2nc3ccc(C(F)(F)F)cc3nc2C(=O)O)cc1OC` was tested, and the TGI was over 100 µM. `CCC[C@H]1C(=O)N=C(N)N1C(=O)OCc1ccccc1` showed a TGI of over 100 µM. Work on `COc1ccc2c(CCCC(c3ccccc3)c3ccccc3)c3[n+](cc2c1OC)CCc1cc2c(cc1-3)OCO2` yielded a GI50 of 1.25 µM and a TGI of 2.62 µM. Molecule `CC(=O)NS(=O)(=O)c1ccc(NC(=O)c2c3ccccc3nc3ccccc23)cc1` has a TGI of over 100 µM. In the case of `CC(C)(C)N=c1n(C(C)(C)C)oc(=O)n1C(C)(C)C`, the TGI was over 100 µM. With `CN(C(=O)C12C3C4C5C3C1(C(=O)O)C5C42)C(C)(C)C` (stereo not drawn) the TGI was over 100 µM. `COc1ccc(-c2cc(=O)c3cc4c(cc3[nH]2)OCO4)c(OC)c1OC` was tested, and the TGI was over 100 µM. Molecule `COC(=O)NN(C(=O)OC)c1c(-c2ccccc2)nc(SC)n1N` has a TGI of over 100 µM. `Cc1cc(C)c2c(=O)n(CN3CC4Nc5ccccc5C4C3)sc2n1` (stereo not drawn) showed a TGI of over 100 µM. For `CCN(CC)CCNc1ccc2nnn3c4ccc(OC)cc4c(=O)c1c23`, the TGI was 21.1 µM. `CCOC(=O)C1=C(C(C)=O)CSC(c2ccccc2)=N1` gave a TGI of over 100 µM. `Nc1c(C(=O)Nc2cccc([N+](=O)[O-])c2)sc2nc3c(cc12)C(O)CCC3` (stereo not drawn) gave a GI50 of over 100 µM and a TGI of over 100 µM. `N#Cc1cnc2cc(OC[C@H](O)CO)c(NC(=O)CC3CSSC3)cc2c1Nc1ccc(OCc2cccc(F)c2)c(Cl)c1` showed a GI50 of 0.517 µM and a TGI of 1.3 µM. Molecule `NC(CSCc1ccccc1)C(=O)O` (stereo not drawn) has a TGI of over 100 µM. Work on `Oc1ccc(-c2nnc3sc(-c4ccc(F)cc4)nn23)cc1` yielded a GI50 of over 100 µM and a TGI of over 100 µM. With `CN(C)c1ccc(-c2c(C#N)c(S)n(NS(=O)(=O)c3ccccc3)c(=O)c2C#N)cc1` the TGI was over 100 µM. In the case of `N#C/C(=C1\OC(=O)C(c2ccc(Br)cc2)=C1O)c1ccc(Br)cc1`, the TGI was 30.3 µM. With `COc1ccc(C(=O)/C=C/c2ccc(/C=C/c3cc(OC)c(OC)c(OC)c3)cc2)cc1` the GI50 was 19.8 µM and the TGI was over 100 µM. For `C1CCSCCCCSCCCCSCCCCSC1`, the TGI was over 100 µM. `C[n+]1c(-c2ccccc2)cc2/c(=C\c3ccc([N+](=O)[O-])cc3)c3ccccc3n21` gave a TGI of over 88.9 µM. Work on `CCOC(=O)c1[nH]cc(C)c1-c1ccn(-c2ccccc2)c1` yielded a TGI of over 100 µM. Molecule `CC(=O)OC(C)c1cc2c(s1)C(=O)c1sccc1C2=O` (stereo not drawn) has a TGI of 3.64 µM. `O=C1CCSSCCC(=O)NCCN1` gave a TGI of over 100 µM.
